# Source: the supplement of paper PMC8728848
# Some of the results follow.
# B1: PX9937D-bvu-500-26-500 (Bacteroides vulgatus) (protein)
# chain: DPVSDITDLNYWKTPEQFDSFVFGLHSRFRSHSWNMFLLGEARSDVFGGIPFGGEATQGMERFPYNTLNAENPGISGFGDLYQNINQMNLFISRTLHTDVLTESARNYYLGQVYGLRAYYMYQLYRSWGDVVFTEEPSLGFEVGKLAKAATPAAEIFEQVKKDIESSLSYFGSDYTIKEKKSLWSKAATLMLKADVYLWSAHRDGGEGDARTAKNALVDIQNNISRSNLDLMDTYQGVFAYDNKGNKEIIFTIHNELFEYNLWNGNNDLFPQADYLGKFYNADGTLINTSVENNFGIMRLMVKLENFKKFLPGDTRRDVTLKDVYNKVENGKLELVGVYPHKYWGVMNGSTRVRCDDYPIYRYSDLLLMLAEAKVLLGEDPATEINRVRRRAFGDAYDASTVGFPNQEVDKRPADAVLQERLFEFMLEGKRWYDLRRFGDSYVLDYTPAEPARLLWPINQGALTNNPLLKQTVGY
# Key:
# Test in all cases: glycan array binding signal (z-score within array); higher = stronger binding
# Details in all cases: glycan notation: IUPAC condensed, linker removed
# [1] = target: Fuc(a1-2)Gal(b1-4)GlcNAc(b1-3)Gal(b1-4)GlcNAc(b1-3)Gal(b1-4)GlcNAc
# In short: (§1)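 Glycan array binding is given as a within-array Z-score, which can be read as non-binding when negative. The arrays, 3228 of them, came from the Consortium for Functional Glycomics database and were retained only where the protein sequence was available. Z-scores were averaged across arrays of the same protein sequence at different concentrations or buffers and across linkers.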
# [2] = target: Fuc(a1-2)Gal(b1-4)GlcNAc(b1-3)GalNAc
# In short: as §1
# [3] = target: Fuc(a1-2)Gal(b1-4)GlcNAc(b1-3)[Fuc(a1-2)Gal(b1-4)GlcNAc(b1-6)]GalNAc
# In short: as §1
# [4] = target: Fuc(a1-2)Gal(b1-4)GlcNAc(b1-3)[Fuc(a1-3)[Gal(b1-4)]GlcNAc(b1-6)]Gal(b1-4)Glc
# In short: as §1
# [5] = target: Fuc(a1-2)Gal(b1-4)GlcNAc(b1-6)GalNAc
# In short: as §1
# [6] = target: Fuc(a1-2)Gal(b1-4)GlcNAc6S
# In short: as §1
# [7] = target: Fuc(a1-2)Gal(b1-4)[Fuc(a1-3)]GlcNAc
# In short: as §1
# [8] = target: Fuc(a1-2)Gal(b1-4)[Fuc(a1-3)]GlcNAc(b1-2)Man(a1-3)[Fuc(a1-2)Gal(b1-4)[Fuc(a1-3)]GlcNAc(b1-2)Man(a1-6)]Man(b1-4)GlcNAc(b1-4)[Fuc(a1-6)]GlcNAc
# In short: as §1
# [9] = target: Fuc(a1-2)Gal(b1-4)[Fuc(a1-3)]GlcNAc(b1-2)[Fuc(a1-2)Gal(b1-4)[Fuc(a1-3)]GlcNAc(b1-4)]Man(a1-3)[Fuc(a1-2)Gal(b1-4)[Fuc(a1-3)]GlcNAc(b1-2)Man(a1-6)]Man(b1-4)GlcNAc(b1-4)GlcNAc
# In short: as §1
# [10] = target: Fuc(a1-2)Gal(b1-4)[Fuc(a1-3)]GlcNAc(b1-3)Gal(b1-4)[Fuc(a1-3)]GlcNAc
# In short: as §1
# [11] = target: Fuc(a1-2)Gal(b1-4)[Fuc(a1-3)]GlcNAc(b1-3)Gal(b1-4)[Fuc(a1-3)]GlcNAc(b1-3)Gal(b1-4)[Fuc(a1-3)]GlcNAc
# In short: as §1
# [12] = target: Fuc(a1-2)Gal(b1-4)[Fuc(a1-3)]GlcNAc(b1-3)GalNAc
# In short: as §1
# [13] = target: Fuc(a1-2)Gal(b1-4)[Fuc(a1-3)]GlcNAc(b1-3)[Neu5Ac(a2-6)Gal(b1-4)GlcNAc(b1-6)]Gal(b1-4)Glc
# In short: as §1
# [14] = target: Fuc(a1-2)Gal3S(b1-4)GlcNAc
# In short: as §1
# [15] = target: Fuc(a1-2)Gal6S(b1-3)GlcNAc
# In short: as §1
# [16] = target: Fuc(a1-2)Gal6S(b1-3)GlcNAc6S
# In short: as §1
# [17] = target: Fuc(a1-2)Gal6S(b1-4)Glc
# In short: as §1
# [18] = target: Fuc(a1-2)Gal6S(b1-4)Glc6S
# In short: as §1
# [19] = target: Fuc(a1-2)[Gal(a1-3)]Gal
# In short: as §1
# [20] = target: Fuc(a1-2)[Gal(a1-3)]Gal(b1-3)GalNAc
# In short: as §1
# [21] = target: Fuc(a1-2)[Gal(a1-3)]Gal(b1-3)GalNAc(b1-3)Gal(a1-4)Gal(b1-4)Glc
# In short: as §1
# [22] = target: Fuc(a1-2)[Gal(a1-3)]Gal(b1-3)GlcNAc
# In short: as §1
# [23] = target: Fuc(a1-2)[Gal(a1-3)]Gal(b1-3)GlcNAc(b1-2)Man(a1-3)[Fuc(a1-2)[Gal(a1-3)]Gal(b1-3)GlcNAc(b1-2)Man(a1-6)]Man(b1-4)GlcNAc(b1-4)GlcNAc
# In short: as §1
# [24] = target: Fuc(a1-2)[Gal(a1-3)]Gal(b1-3)GlcNAc(b1-2)Man(a1-3)[Fuc(a1-2)[Gal(a1-3)]Gal(b1-3)GlcNAc(b1-2)Man(a1-6)]Man(b1-4)GlcNAc(b1-4)[Fuc(a1-6)]GlcNAc
# In short: as §1
# [25] = target: Fuc(a1-2)[Gal(a1-3)]Gal(b1-3)GlcNAc(b1-3)GalNAc
# In short: as §1
# [26] = target: Fuc(a1-2)[Gal(a1-3)]Gal(b1-3)GlcNAc(b1-6)GalNAc
# In short: as §1
# [27] = target: Fuc(a1-2)[Gal(a1-3)]Gal(b1-4)Glc
# In short: as §1
# [28] = target: Fuc(a1-2)[Gal(a1-3)]Gal(b1-4)GlcNAc
# In short: as §1
# [29] = target: Fuc(a1-2)[Gal(a1-3)]Gal(b1-4)GlcNAc(b1-2)Man
# In short: as §1
# [30] = target: Fuc(a1-2)[Gal(a1-3)]Gal(b1-4)GlcNAc(b1-2)Man(a1-3)[Fuc(a1-2)[Gal(a1-3)]Gal(b1-4)GlcNAc(b1-2)Man(a1-6)]Man(b1-4)GlcNAc(b1-4)GlcNAc
# In short: as §1
binder,measurement,setting,value
B1,glycan array binding signal (z-score),[1],-0.492
same,glycan array binding signal (z-score),[2],-0.156
same,glycan array binding signal (z-score),[3],-0.387
same,glycan array binding signal (z-score),[4],-0.243
same,glycan array binding signal (z-score),[5],0.165
same,glycan array binding signal (z-score),[6],-0.12
same,glycan array binding signal (z-score),[7],-0.417
same,glycan array binding signal (z-score),[8],5.16
same,glycan array binding signal (z-score),[9],-0.075
same,glycan array binding signal (z-score),[10],-0.156
same,glycan array binding signal (z-score),[11],-0.184
same,glycan array binding signal (z-score),[12],1.16
same,glycan array binding signal (z-score),[13],0.012
same,glycan array binding signal (z-score),[14],-0.583
same,glycan array binding signal (z-score),[15],0.367
same,glycan array binding signal (z-score),[16],-0.19
same,glycan array binding signal (z-score),[17],0.013
same,glycan array binding signal (z-score),[18],0.207
same,glycan array binding signal (z-score),[19],0.336
same,glycan array binding signal (z-score),[20],-0.371
same,glycan array binding signal (z-score),[21],-0.344
same,glycan array binding signal (z-score),[22],-0.161
same,glycan array binding signal (z-score),[23],0.05
same,glycan array binding signal (z-score),[24],0.209
same,glycan array binding signal (z-score),[25],-0.226
same,glycan array binding signal (z-score),[26],-0.109
same,glycan array binding signal (z-score),[27],-0.284
same,glycan array binding signal (z-score),[28],-0.101
same,glycan array binding signal (z-score),[29],-0.482
same,glycan array binding signal (z-score),[30],-0.348
